Measurements published in PubChem BioAssay (NCI).
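Method: 48-hour compound exposure of cells in 96-well plates, five concentrations, linear interpolation of endpoints. GI50 = concentration required for 50% inhibition of growth. TGI: concentration producing complete growth inhibition.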

These compounds were tested on NCI-H322M lung (assay: NCI tumour cell line growth inhibition, 48 h).

First: CCCCC/C=C/C/C=C/CCCCCCCC1=NC(C)(C)CN1C(C)C
Second: COC(=O)[C@]12CCC(C)(C)C[C@H]1C1=CC[C@@H]3[C@@]4(C)C/C(=C/c5cccnc5)C(=O)C(C)(C)[C@@H]4CC[C@@]3(C)[C@]1(C)CC2
The GI50 of the first is 8.7-fold lower: 1.96 µM for the first, 17 µM for the second.

Compared with `COc1cc2c(/C=C3/C(=O)Nc4cccc(Cl)c43)c(Cl)n(Cc3ccccc3)c2cc1C`, `COc1cc(Cn2c(-c3ccccc3)cc3c2-c2oncc2CC3)cc(OC)c1OC` is 3.9-fold higher in GI50: 12 µM for the first, 46.5 µM for the second.

Going from `COc1cc2c3c(n(CCCCl)c(=O)c2cc1OC)-c1ccccc1C3=O` to `COc1ccc(C2CC(=O)c3c(OC)cc(OC)cc3O2)cc1` (configuration not stated), the GI50 rises from 66.6 µM to > 100 µM.

For `CC(=O)[O][Hg][c]1c(C)c(C)c(C)c(C)c1C`, the GI50 was 2.25 µM.

Compared with `CCCCC/C=C/C/C=C/CCCCCCCC1=NC(C)(C)CN1C(C)C`, `CCCCCCCCCCCCCCCCCc1cccc(OCOCCOC)c1CO` is higher in TGI: 4.21 µM for the first, > 100 µM for the second.

First: CC(C(=O)O)c1cnn(-c2ccccc2)c1-n1cccc1 (configuration not stated)
Second: Cc1ccc(N=NC(C(=O)c2ccccc2)C(=O)c2ccccc2)cc1
The TGI of the first is higher: > 100 µM for the first, 62.5 µM for the second.

Compared with `COC(=O)[C@]12CCC(C)(C)C[C@H]1C1=CC[C@@H]3[C@@]4(C)C/C(=C/c5cccnc5)C(=O)C(C)(C)[C@@H]4CC[C@@]3(C)[C@]1(C)CC2`, `C=C1CC[C@@]2(OC1)OC1C[C@H]3[C@@H]4CC=C5C[C@@H](O)CC(OC6OCC(OC(=O)[C@@H](O)[C@@H](C)CC)C(OC(C)=O)C6OC6OC(C)C(O)C(O)C6O)[C@]5(C)[C@H]4CC[C@]3(C)C1[C@@H]2C` (some centres not stated) is 7.8-fold lower in TGI: 65.3 µM for the first, 8.41 µM for the second.

`CCCN(CCCCC(NC(C)=O)C(=O)NCc1ccccc1)C(=O)N(CCCl)N=O` (configuration not stated) and `COc1cc2c3c(n(CCCCl)c(=O)c2cc1OC)-c1ccccc1C3=O` cannot be ordered by TGI: > 100 µM for the first, > 100 µM for the second.

Going from `NCCc1nc(-c2nc(C(=O)O)cs2)cs1` to `CCOC(=O)C(=C(SC)SC)c1nn2c(=O)cc(C)nc2s1`, the TGI falls from > 100 µM to 49.7 µM.

`CCOC(=O)c1c(SC(=O)/C=C/c2ccccc2)n(-c2ccccc2)c(=S)n(-c2ccccc2)c1=O` and `O=C(CC(=O)N1N=C(c2ccccc2)C(N=Nc2ccc(Cl)cc2)C1=O)Nc1ccccc1Cl` (configuration not stated) cannot be ordered by TGI: > 100 µM for the first, > 100 µM for the second.

`O=C(/C=C/c1ccccc1Cl)c1ccccc1Cl` and `COc1cc2c(/C=C3/C(=O)Nc4cccc(Cl)c43)c(Cl)n(Cc3ccccc3)c2cc1C` cannot be ordered by TGI: > 100 µM for the first, > 80.2 µM for the second.

Compared with `Clc1ccc2c(NCCCCN=Cc3ccccc3)ccnc2c1`, `Cc1ccccc1Nc1cn(COCc2ccccc2)c(=O)[nH]c1=O` is higher in TGI: 48.5 µM for the first, > 100 µM for the second.

`CCCCn1c(C)c(C(=O)OCC)c2cc(OCc3ccc(C(=O)Nn4c(C)ccc4C)cc3)c(Br)cc21` and `Cc1ccc(NC(=O)C2C(=O)N(c3ccc(C)c(C)c3)C(=O)/C2=N/O)cc1C` (configuration not stated) cannot be ordered by TGI: > 100 µM for the first, > 100 µM for the second.

`O=C1C2=C(CC3C(C2)C3(Br)Br)C(=O)C2=C1CC1C(C2)C1(Br)Br` (configuration not stated) and `CC(=O)O[C@@H]1C=C(C)[C@H](CBr)O[C@@]2(C)CC[C@H](Br)C(C)(C)[C@H]12` cannot be ordered by TGI: > 100 µM for the first, > 100 µM for the second.

`COC1(OC)C2(Cl)CCC1(Cl)C(OC(C)=O)C2` (configuration not stated) and `CSc1nc(NC2OC(COC(C)=O)C(OC(C)=O)C(OC(C)=O)C2OC(C)=O)c2c(OC(C)=O)c(C)c(=O)oc2n1` (configuration not stated) cannot be ordered by TGI: > 100 µM for the first, > 100 µM for the second.

Compared with `N#CCCN(c1ccc(/C=C2\N=C(c3ccc(Cl)cc3)OC2=O)cc1)S(=O)(=O)c1ccccc1`, `O=C1NC(Nc2cccc(Cl)c2)=N/C1=C\c1ccc(Cl)c(Cl)c1` is lower in TGI: > 100 µM for the first, 15.7 µM for the second.

Compared with `N#Cc1cnsc1`, `O=[N+]([O-])c1ccc2nnnn2c1` is lower in TGI: > 100 µM for the first, 88 µM for the second.

`CC1=CC(=O)NP(=O)(Oc2ccc(C)cc2)N1` (configuration not stated) and `C=CCNc1ccc(C)cc1` cannot be ordered by TGI: > 100 µM for the first, > 100 µM for the second.

`O=c1[nH]c(=O)n(C2CC(O)C(CS)O2)cc1F` (configuration not stated) and `COc1cc([N+](=O)[O-])ccc1NC(=O)C(F)(F)F` cannot be ordered by TGI: > 100 µM for the first, > 100 µM for the second.

`COc1cc(Cn2c(-c3ccccc3)cc3c2-c2oncc2CC3)cc(OC)c1OC` and `COc1ccc(-c2c(C#N)c(NC(=S)NC(=O)c3ccccc3)nc3c2CCCC3)cc1OC` cannot be ordered by TGI: > 100 µM for the first, > 100 µM for the second.

First: COc1cc(C2c3cc4c(cc3[C@H](OCCN(C)C)[C@@H]3COC(=O)C23)OCO4)cc(OC)c1O (some centres not stated)
Second: COc1ccc(C2CC(=O)c3c(OC)cc(OC)cc3O2)cc1 (configuration not stated)
The TGI of the first is lower: 27.5 µM for the first, > 100 µM for the second.

`COc1ccc(-c2c(C(C)=O)c(-c3ccccc3)n(C3OC(COC(C)=O)C(OC(C)=O)C(OC(C)=O)C3OC(C)=O)c(=S)c2C#N)cc1` (configuration not stated) and `COc1ccc2c(c1)OCc1c-2oc2ccccc2c1=O` cannot be ordered by TGI: > 100 µM for the first, > 100 µM for the second.

`CCSc1nc(N2CCOCC2)c2cn[nH]c2n1` and `CC/C(=N/O)c1ccc(Br)s1` cannot be ordered by TGI: > 100 µM for the first, > 100 µM for the second.

Going from `N#[O+].O=S(=O)([O-])[O-].[NH2-].[NH2-].[NH2-].[NH2-].[NH2-].[Ru+5]` to `CC(=O)[O][Hg][c]1c(C)c(C)c(C)c(C)c1C`, the TGI falls from > 100 µM to 5.99 µM.
